Laboratory results as given in the supplement of paper PMC4967469.
By IC50 is meant the dose at which the fit gives 50% viability; where the fit passes the top or lowest dose, that dose stands as a limit. AUC, from the same fit, is the share of area under the viability curve across the 256-fold dose range; it is 1 without any effect and falls as sensitivity rises. Any top dose called inferred was calculated from the reported fits.

What was measured:
Test in all cases: Viability of human cancer cell lines after 72 h of drug (GDSC screen)
CCT007093 = compound: O=C1/C(=C/c2cccs2)CC/C1=C\c1cccs1 [CCT007093]; conditions: top dose 6.6 µM; top dose inferred
Protocol: (§1)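 Human cancer cell lines in 384-well plates, medium with 10% serum, drug for 72 h over a 256-fold dose range (nine 2-fold or five 4-fold steps up to the top dose). Adherent lines were fixed and stained with the nucleic acid dye Syto60, suspension lines read with resazurin; signal relative to control wells, capped at 0 and 100%. One two-parameter sigmoid per drug and line, fitted in a mixed model over all curves with the slope shared within a line.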

KIN001-266 = compound: CCN1CCC(n2cc(CNc3cc(Cl)c4ncc(C#N)c(Nc5ccc(F)c(Cl)c5)c4c3)nn2)CC1 [KIN001-266]; conditions: top dose 20 µM; top dose inferred
Protocol: as §1

QL-XII-47 = compound: C=CC(=O)N1CCc2ccc(-n3c(=O)ccc4cnc5ccc(-c6cnn(C)c6)cc5c43)cc21 [QL-XII-47]; conditions: top dose 10.24 µM; top dose inferred
Protocol: as §1

BAY 61-3606 = compound: COc1ccc(-c2cc3nccn3c(Nc3ncccc3C(N)=O)n2)cc1OC [BAY 61-3606]; conditions: top dose 8 µM; top dose inferred
Protocol: as §1

Row | Cell Line | AUC (CCT007093) | IC50 (CCT007093) | AUC (KIN001-266) | IC50 (KIN001-266) | AUC (QL-XII-47) | IC50 (QL-XII-47) | AUC (BAY 61-3606) | IC50 (BAY 61-3606)
1 | BPH-1 (prostate, adherent) | 0.937 | > 6.6 µM | 0.829 | 14.3 µM | 0.257 | 0.118 µM | 0.754 | 2.95 µM
2 | BT-20 (breast, adherent) | 0.957 | > 6.6 µM | 0.966 | > 20 µM | 0.564 | 1 µM | 0.978 | > 8 µM
3 | BT-474 (breast, adherent) | 0.95 | > 6.6 µM | 0.863 | > 20 µM | 0.552 | 0.902 µM | 0.887 | > 8 µM
4 | BT-483 (breast, adherent) | 0.951 | > 6.6 µM | 0.973 | > 20 µM | 0.736 | 5.64 µM | 0.967 | > 8 µM
5 | BV-173 (chronic myeloid leukaemia, suspension) | 0.982 | > 6.6 µM | 0.883 | 16.9 µM | 0.645 | 1.53 µM | 0.88 | 6.58 µM
6 | Becker (glioma, adherent) | 0.93 | > 6.6 µM | 0.976 | > 20 µM | 0.859 | > 10.2 µM | 0.93 | > 8 µM
7 | BxPC-3 (pancreas, adherent) | 0.961 | > 6.6 µM | 0.847 | 17.5 µM | 0.816 | 6.58 µM | 0.702 | 1.99 µM
8 | C2BBe1 (large intestine, adherent) | 0.983 | > 6.6 µM | 0.851 | 18.7 µM | 0.905 | > 10.2 µM | 0.851 | 7.5 µM
9 | C3A (liver, adherent) | 0.984 | > 6.6 µM | 0.988 | > 20 µM | 0.922 | > 10.2 µM | 0.817 | 4.69 µM
10 | C32 (melanoma, adherent) | 0.987 | > 6.6 µM | 0.978 | > 20 µM | 0.928 | > 10.2 µM | 0.985 | > 8 µM
11 | C-4-I (cervix, adherent) | 0.986 | > 6.6 µM | 0.96 | > 20 µM | 0.981 | > 10.2 µM | 0.899 | > 8 µM
12 | C-33-A (cervix, adherent) | 0.978 | > 6.6 µM | 0.722 | 5.35 µM | 0.678 | 2.01 µM | 0.674 | 1.54 µM
13 | CA46 (Burkitt lymphoma, suspension) | 0.961 | > 6.6 µM | 0.804 | 10.9 µM | 0.478 | 0.555 µM | 0.643 | 1.28 µM
14 | CAKI-1 (kidney, adherent) | 0.964 | > 6.6 µM | 0.86 | > 20 µM | 0.621 | 1.63 µM | 0.713 | 2.73 µM
15 | CAL-12T (non-small cell lung carcinoma, adherent) | 0.97 | > 6.6 µM | 0.837 | 15.7 µM | 0.349 | 0.232 µM | 0.511 | 0.537 µM
16 | CAL-27 (head and neck, adherent) | 0.986 | > 6.6 µM | 0.904 | > 20 µM | 0.799 | 5.04 µM | 0.813 | 4.42 µM

Row | Cell Line | AUC (CCT007093) | IC50 (CCT007093) | AUC (KIN001-266) | IC50 (KIN001-266) | AUC (QL-XII-47) | IC50 (QL-XII-47) | AUC (BAY 61-3606) | IC50 (BAY 61-3606)
17 | CAL-29 (bladder, adherent) | 0.963 | > 6.6 µM | 0.854 | 17.6 µM | 0.904 | > 10.2 µM | 0.919 | > 8 µM
18 | CAL-33 (head and neck, adherent) | 0.944 | > 6.6 µM | 0.948 | > 20 µM | 0.635 | 1.51 µM | 0.892 | > 8 µM
19 | CAL-39 (cervix, adherent) | 0.967 | > 6.6 µM | 0.959 | > 20 µM | 0.755 | 3.6 µM | 0.772 | 3.21 µM
20 | CAL-51 (breast, adherent) | 0.99 | > 6.6 µM | 0.978 | > 20 µM | 0.915 | > 10.2 µM | 0.808 | 3.48 µM
21 | CAL-54 (kidney, adherent) | 0.982 | > 6.6 µM | 0.975 | > 20 µM | 0.83 | 7.74 µM | 0.915 | > 8 µM
22 | CAL-72 (osteosarcoma, adherent) | 0.984 | > 6.6 µM | 0.983 | > 20 µM | 0.982 | > 10.2 µM | 0.98 | > 8 µM
23 | CAL-78 (chondrosarcoma, adherent) | 0.981 | > 6.6 µM | 0.917 | > 20 µM | 0.986 | > 10.2 µM | 0.986 | > 8 µM
24 | CAL-85-1 (breast, adherent) | 0.981 | > 6.6 µM | 0.839 | 19.6 µM | 0.761 | 4.64 µM | 0.779 | 4.24 µM
25 | CAL-120 (breast, adherent) | 0.98 | > 6.6 µM | 0.878 | > 20 µM | 0.842 | > 10.2 µM | 0.861 | > 8 µM
26 | CAMA-1 (breast, adherent) | 0.939 | > 6.6 µM | 0.861 | > 20 µM | 0.743 | 3.88 µM | 0.962 | > 8 µM
27 | CAPAN-1 (pancreas, adherent) | 0.97 | > 6.6 µM | 0.969 | > 20 µM | 0.892 | > 10.2 µM | 0.794 | –
28 | CCF-STTG1 (glioma, adherent) | 0.988 | > 6.6 µM | 0.876 | > 20 µM | 0.988 | > 10.2 µM | 0.865 | 7.17 µM
29 | CCK-81 (large intestine, adherent) | 0.986 | > 6.6 µM | 0.86 | 15.2 µM | 0.639 | 1.51 µM | 0.928 | > 8 µM
30 | CCRF-CEM (lymphoblastic leukaemia, suspension) | 0.989 | > 6.6 µM | 0.853 | 11.8 µM | 0.672 | 1.76 µM | 0.73 | –
31 | CESS (acute myeloid leukaemia, suspension) | 0.991 | > 6.6 µM | 0.804 | 8.34 µM | 0.487 | 0.593 µM | 0.69 | 1.56 µM
